# Data taken from the supplement of paper PMC11741623.
# This is one part of the list. Interaction screen of human proteins with wild-type SARS-CoV-2 proteins by split-DHFR complementation in yeast, 1 µg/mL methotrexate. Value = fitness of the pair (three or more lineages) minus that of the viral protein without a human partner, on a scale set by negative (0) and fused positive (1) controls, mean of up to three cultures; higher = more likely to interact. Active = false discovery rate below 0.05 (one-sided t-test) in at least one culture. Nearly all pairs are not hits, and differences among them are mostly noise (correlation between cultures about 0.3); most hits were seen in one culture only. Human sequences are the Swiss-Prot entries looked up by gene name; the clone may be another isoform. NSP2 values were corrected by the authors for a growth advantage. Listed are human proteins with a hit and a random twelfth of the others.
# B1: C2orf48, Q96LS8 (protein)
# chain: MESRPSGRQHASEGDGDQSPTQCAGMRSSGRSDQPYVLKGNPLLLRVRCYSGCASGSGRQLQLSVFQDLNQFSHCRVWRSPALIVKGEPPWCSQQDTQSPFQTGTPLERPCFRMKLSGWELTKNAQRALGSKLQHILSLDSTQACGAGGPTILRPPRAP
# B2: SYT2, Q8N9I0 (protein)
# chain: MRNIFKRNQEPIVAPATTTATMPIGPVDNSTESGGAGESQEDMFAKLKEKLFNEINKIPLPPWALIAIAVVAGLLLLTCCFCICKKCCCKKKKNKKEKGKGMKNAMNMKDMKGGQDDDDAETGLTEGEGEGEEEKEPENLGKLQFSLDYDFQANQLTVGVLQAAELPALDMGGTSDPYVKVFLLPDKKKKYETKVHRKTLNPAFNETFTFKVPYQELGGKTLVMAIYDFDRFSKHDIIGEVKVPMNTVDLGQPIEEWRDLQGGEKEEPEKLGDICTSLRYVPTAGKLTVCILEAKNLKKMDVGGLSDPYVKIHLMQNGKRLKKKKTTVKKKTLNPYFNESFSFEIPFEQIQKVQVVVTVLDYDKLGKNEAIGKIFVGSNATGTELRHWSDMLANPRRPIAQWHSLKPEEEVDALLGKNK
# B3: HESX1, Q9UBX0 (protein)
# chain: MSPSLQEGAQLGENKPSTCSFSIERILGLDQKKDCVPLMKPHRPWADTCSSSGKDGNLCLHVPNPPSGISFPSVVDHPMPEERASKYENYFSASERLSLKRELSWYRGRRPRTAFTQNQIEVLENVFRVNCYPGIDIREDLAQKLNLEEDRIQIWFQNRRAKLKRSHRESQFLMAKKNFNTNLLE
# B4: POU2AF1, Q16633 (protein)
# chain: MLWQKPTAPEQAPAPARPYQGVRVKEPVKELLRRKRGHASSGAAPAPTAVVLPHQPLATYTTVGPSCLDMEGSVSAVTEEAALCAGWLSQPTPATLQPLAPWTPYTEYVPHEAVSCPYSADMYVQPVCPSYTVVGPSSVLTYASPPLITNVTTRSSATPAVGPPLEGPEHQAPLTYFPWPQPLSTLPTSTLQYQPPAPALPGPQFVQLPISIPEPVLQDMEDPRRAASSLTIDKLLLEEEDSDAYALNHTLSVEGF
# Molecular target: SARS-CoV-2 E
# Test: yeast fitness gain over the viral ORF with no human partner (scaled fitness); higher = more likely to interact
# Experimental: (§1)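 Split mouse DHFR complementation in pooled diploid yeast: human ORFeome clones carry one fragment and viral ORFs the other; barcoded lineages compete in 1 µg/mL methotrexate and fitness is read by barcode sequencing in up to three cultures.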
row,Binder,yeast fitness gain
1,B1,inactive: -0.00998
2,B2,inactive: 0.0818
3,B3,inactive: 0.00145
4,B4,inactive: 0.00983

# Molecular target: SARS-CoV-2 NSP10
# Test: as above
# Experimental: as §1
row,Binder,yeast fitness gain
1,B1,inactive: -0.0673
2,B2,inactive: 0.0697
3,B3,inactive: 0.0344
4,B4,inactive: 0.00219

# Molecular target: SARS-CoV-2 NSP12
# Test: as above
# Experimental: as §1
row,Binder,yeast fitness gain
1,B1,inactive: -0.142
2,B2,inactive: 0.0455
3,B3,inactive: 0.0474
4,B4,inactive: -0.026

# Molecular target: SARS-CoV-2 NSP13
# Test: as above
# Experimental: as §1
row,Binder,yeast fitness gain
1,B1,inactive: -0.093
2,B2,inactive: 0.0332
3,B3,inactive: 0.0376
4,B4,inactive: 0.026

# Molecular target: SARS-CoV-2 NSP15
# Test: as above
# Experimental: as §1
row,Binder,yeast fitness gain
1,B1,inactive: -0.0523
2,B2,inactive: -0.115
3,B3,inactive: -0.0155
4,B4,inactive: -0.104

# Molecular target: SARS-CoV-2 NSP2
# Test: as above
# Experimental: as §1
row,Binder,yeast fitness gain
1,B1,inactive: -0.126
2,B2,inactive: 0.0181
3,B3,inactive: -0.119
4,B4,inactive: -0.0786

# Molecular target: SARS-CoV-2 NSP5
# Test: as above
# Experimental: as §1
row,Binder,yeast fitness gain
1,B1,inactive: -0.0732
2,B2,inactive: 0.0412
3,B3,inactive: 0.00803
4,B4,inactive: -0.0511

# Molecular target: SARS-CoV-2 NSP6
# Test: as above
# Experimental: as §1
row,Binder,yeast fitness gain
1,B1,inactive: 0.0334
2,B2,inactive: 0.0674
3,B3,inactive: 0.0232
4,B4,inactive: 0.0313

# Molecular target: SARS-CoV-2 NSP8
# Test: as above
# Experimental: as §1
row,Binder,yeast fitness gain
1,B1,inactive: -0.104
2,B2,inactive: 0.0319
3,B3,inactive: -0.00326
4,B4,inactive: 0.0196

# Molecular target: SARS-CoV-2 ORF10
# Test: as above
# Experimental: as §1
row,Binder,yeast fitness gain
1,B1,inactive: -0.0194
2,B2,inactive: 0.0294
3,B3,inactive: 0.0191
4,B4,inactive: -0.0265

# Molecular target: SARS-CoV-2 ORF3B
# Test: as above
# Experimental: as §1
row,Binder,yeast fitness gain
1,B1,inactive: 0.0289
2,B2,inactive: 0.058
3,B3,inactive: -0.00969
4,B4,inactive: 0.0337

# Molecular target: SARS-CoV-2 ORF6
# Test: as above
# Experimental: as §1
row,Binder,yeast fitness gain
1,B1,inactive: -0.067
2,B2,inactive: 0.0455
3,B3,inactive: -0.0399
4,B4,inactive: 0.00433

# Molecular target: SARS-CoV-2 ORF7B
# Test: as above
# Experimental: as §1
row,Binder,yeast fitness gain
1,B1,inactive: -0.0245
2,B2,inactive: 0.235
3,B3,inactive: 0.0107
4,B4,inactive: 0.0162

# Molecular target: SARS-CoV-2 ORF8
# Test: as above
# Experimental: as §1
row,Binder,yeast fitness gain
1,B1,inactive: 0.0276
2,B2,inactive: -0.0226
3,B3,inactive: 0.00733
4,B4,inactive: 0.0346

# Molecular target: SARS-CoV-2 ORF9B
# Test: as above
# Experimental: as §1
row,Binder,yeast fitness gain
1,B1,inactive: -0.0939
2,B2,inactive: 0.003
3,B3,inactive: 0.0245
4,B4,inactive: 0.0216

# Molecular target: SARS-CoV-2 ORF9Bwu (the 73-codon ORF)
# Test: as above
# Experimental: as §1
row,Binder,yeast fitness gain
1,B1,inactive: 0.0328
2,B2,inactive: -0.223
3,B3,inactive: 0.0244
4,B4,inactive: 0.0203

# Molecular target: SARS-CoV-2 S
# Test: as above
# Experimental: as §1
row,Binder,yeast fitness gain
1,B1,inactive: -0.0646
2,B2,inactive: 0.0103
3,B3,inactive: 0.0452
4,B4,inactive: 0.0446

# Molecular target: SARS-CoV-2 M
# Test: as above
# Experimental: as §1
row,Binder,yeast fitness gain
1,B2,inactive: 0.0681
2,B3,inactive: 0.0343
3,B4,inactive: 0.013

# Molecular target: SARS-CoV-2 N
# Test: as above
# Experimental: as §1
row,Binder,yeast fitness gain
1,B2,inactive: -0.00566
2,B3,inactive: -0.00572
3,B4,inactive: -0.0399

# Molecular target: SARS-CoV-2 NSP1
# Test: as above
# Experimental: as §1
row,Binder,yeast fitness gain
1,B2,inactive: 0.0221
2,B3,inactive: 0.0548
3,B4,inactive: -0.0284

# Molecular target: SARS-CoV-2 NSP14
# Test: as above
# Experimental: as §1
row,Binder,yeast fitness gain
1,B2,inactive: -0.0523
2,B3,inactive: 0.0245
3,B4,inactive: -0.403

# Molecular target: SARS-CoV-2 NSP16
# Test: as above
# Experimental: as §1
row,Binder,yeast fitness gain
1,B2,inactive: -0.00194
2,B3,inactive: 0.0355
3,B4,inactive: 0.0583

# Molecular target: SARS-CoV-2 NSP4
# Test: as above
# Experimental: as §1
row,Binder,yeast fitness gain
1,B2,active: 0.551
2,B3,inactive: 0.149
3,B4,inactive: -0.101

# Molecular target: SARS-CoV-2 NSP7
# Test: as above
# Experimental: as §1
row,Binder,yeast fitness gain
1,B2,inactive: 0.0711
2,B3,inactive: 0.0279
3,B4,inactive: 0.0197

# Molecular target: SARS-CoV-2 NSP9
# Test: as above
# Experimental: as §1
row,Binder,yeast fitness gain
1,B2,inactive: -0.00124
2,B3,inactive: 0.0395
3,B4,inactive: 0.0462

# Molecular target: SARS-CoV-2 ORF3A
# Test: as above
# Experimental: as §1
row,Binder,yeast fitness gain
1,B2,inactive: -0.0395
2,B3,inactive: 0.00277
3,B4,inactive: 0.0343

# Molecular target: SARS-CoV-2 ORF7A
# Test: as above
# Experimental: as §1
row,Binder,yeast fitness gain
1,B2,inactive: 0.379
2,B3,inactive: 0.0291
3,B4,inactive: 0.00122
